According to publication PMC6377148:
Results are given in words; binding and its absence hold for the method and conditions named. In cells and extracts the contact can be indirect. Some binding calls cover weakened binding; strength is not graded here. For some assays here: Where a sequence is shown, tags or fusion partners need not be part of it.

Chains of the proteins cited; added tags and fusions are not shown.
UniProt P24863: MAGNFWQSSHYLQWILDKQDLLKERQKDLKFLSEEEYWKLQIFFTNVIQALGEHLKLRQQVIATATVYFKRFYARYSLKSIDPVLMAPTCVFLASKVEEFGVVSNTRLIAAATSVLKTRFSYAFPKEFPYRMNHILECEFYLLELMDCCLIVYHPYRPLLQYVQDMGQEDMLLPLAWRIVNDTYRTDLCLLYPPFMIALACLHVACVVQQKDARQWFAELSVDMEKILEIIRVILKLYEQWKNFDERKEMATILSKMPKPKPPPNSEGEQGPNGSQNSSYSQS
UniProt P49336: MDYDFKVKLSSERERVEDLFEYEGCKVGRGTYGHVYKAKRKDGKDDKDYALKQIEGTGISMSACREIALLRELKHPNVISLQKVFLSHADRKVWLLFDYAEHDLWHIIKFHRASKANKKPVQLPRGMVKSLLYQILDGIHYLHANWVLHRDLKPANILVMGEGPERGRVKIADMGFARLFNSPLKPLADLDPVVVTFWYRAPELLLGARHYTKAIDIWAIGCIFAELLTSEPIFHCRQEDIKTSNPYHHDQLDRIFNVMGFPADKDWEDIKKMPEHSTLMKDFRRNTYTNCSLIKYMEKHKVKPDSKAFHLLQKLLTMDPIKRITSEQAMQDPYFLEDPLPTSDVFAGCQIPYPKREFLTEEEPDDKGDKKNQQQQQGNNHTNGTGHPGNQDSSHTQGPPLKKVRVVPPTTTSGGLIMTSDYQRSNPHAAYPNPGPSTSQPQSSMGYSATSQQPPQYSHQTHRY

Assays:
[1] = target: Treslin/TICRR (TopBP1-interacting replication stimulating protein/TopBP1-interacting checkpoint and replication regulator), endogenous (human (endogenous in 293T and HeLa)) (UniProt Q7Z2Z1); experiment: co-IP; IP of endogenous Treslin with rabbit anti-Treslin-970-1400 (control IgG) from native lysates of HeLa Flp-In T-Rex lines expressing MTBP-WT or C-terminal deletions; MTBP by immunoblot
[2] = target: T1, HA-Treslin/TICRR-1-671, in vitro translated (human) (UniProt Q7Z2Z1); experiment: co-IP; 35S-labelled MTBP (full length or fragments) and HA-Treslin/TICRR-1-671, each translated in SP6 reticulocyte lysate, mixed; anti-HA IP (control IgG); autoradiography
T1 sequence: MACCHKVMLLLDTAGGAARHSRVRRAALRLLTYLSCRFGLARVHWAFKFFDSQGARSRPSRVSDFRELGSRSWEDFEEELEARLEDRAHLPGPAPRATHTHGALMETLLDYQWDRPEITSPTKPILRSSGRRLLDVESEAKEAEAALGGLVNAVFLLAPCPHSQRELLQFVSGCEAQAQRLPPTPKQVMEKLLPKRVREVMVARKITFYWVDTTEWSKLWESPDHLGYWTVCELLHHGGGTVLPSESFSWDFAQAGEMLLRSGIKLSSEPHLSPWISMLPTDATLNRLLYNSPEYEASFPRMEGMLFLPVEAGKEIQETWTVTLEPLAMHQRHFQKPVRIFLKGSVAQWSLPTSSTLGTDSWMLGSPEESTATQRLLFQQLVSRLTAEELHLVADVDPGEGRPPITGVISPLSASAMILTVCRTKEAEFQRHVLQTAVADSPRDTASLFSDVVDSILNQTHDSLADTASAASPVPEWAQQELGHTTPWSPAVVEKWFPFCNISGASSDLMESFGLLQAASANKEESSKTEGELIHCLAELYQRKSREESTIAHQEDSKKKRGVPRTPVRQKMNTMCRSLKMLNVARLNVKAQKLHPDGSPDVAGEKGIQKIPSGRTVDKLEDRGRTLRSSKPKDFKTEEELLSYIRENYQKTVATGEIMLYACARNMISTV

[3] = target: cyclin C, endogenous (human (endogenous in HeLa and 293T)) (UniProt P24863); experiment: co-IP; antibodies to endogenous MTBP, cyclin C, Cdk8 or TopBP1 (control IgG) on Protein G Dynabeads in native lysates of HeLa Flip-In T-Rex, HeLa-Kyoto or 293T cells, 150 mM NaCl, 0.1% Triton X-100, 2 h at 4°C; unsynchronised or synchronised cells (M, G1, G1/S, S); TopBP1 IP with or without Cdk2-cyclin A and ATP added to the lysate
[4] = target: Cdk8 (cyclin-dependent kinase 8), endogenous (human (endogenous in 293T and HeLa)) (UniProt P49336); experiment: as above

B1: MTBP-ΔC150 (HeLa Flip-In T-Rex stable line) (domain or fragment, UniProt Q96DY7 1-754)
chain: MDRYLLLVIWGEGKFPSAASREAEHGPEVSSGEGTENQPDFTAANVYHLLKRSISASINPEDSTFPACSVGGIPGSKKWFFAVQAIYGFYQFCSSDWQEIHFDTEKDKIEDVLQTNIEECLGAVECFEEEDSNSRESLSLADLYEEAAENLHQLSDKLPAPGRAMVDIILLLSDKDPPKLKDYLPTVGALKHLREWYSAKITIAGNHCEINCQKIAEYLSANVVSLEDLRNVIDSKELWRGKIQIWERKFGFEISFPEFCLKGVTLKNFSTSNLNTDFLAKKIIPSKDKNILPKVFHYYGPALEFVQMIKLSDLPSCYMSDIEFELGLTNSTKQNSVLLLEQISSLCSKVGALFVLPCTISNILIPPPNQLSSRKWKEYIAKKPKTISVPDVEVKGECSSYYLLLQGNGNRRCKATLIHSANQINGSFALNLIHGKMKTKTEEAKLSFPFDLLSLPHFSGEQIVQREKQLANVQVLALEECLKRRKLAKQPETVSVAELKSLLVLTRKHFLDYFDAVIPKMILRKMDKIKTFNILNDFSPVEPNSSSLMETNPLEWPERHVLQNLETFEKTKQKMRTGSLPHSSEQLLGHKEGPRDSITLLDAKELLKYFTSDGLPIGDLQPLPIQKGEKTFVLTPELSPGKLQVLPFEKASVCHYHGIEYCLDDRKALERDGGFSELQSRLIRYETQTTCTRESFPVPTVLSPLPSPVVSSDPGSVPDGEVLQNELRTEVSRLKRRSKDLNCLYPRKRLVKSE
For B1, which binding [1] is on record?
The binding was “binds”.

B2: MTBP fragment of amino acids M1 to Y513, in vitro translated (domain or fragment, UniProt Q96DY7 1-513)
chain: MDRYLLLVIWGEGKFPSAASREAEHGPEVSSGEGTENQPDFTAANVYHLLKRSISASINPEDSTFPACSVGGIPGSKKWFFAVQAIYGFYQFCSSDWQEIHFDTEKDKIEDVLQTNIEECLGAVECFEEEDSNSRESLSLADLYEEAAENLHQLSDKLPAPGRAMVDIILLLSDKDPPKLKDYLPTVGALKHLREWYSAKITIAGNHCEINCQKIAEYLSANVVSLEDLRNVIDSKELWRGKIQIWERKFGFEISFPEFCLKGVTLKNFSTSNLNTDFLAKKIIPSKDKNILPKVFHYYGPALEFVQMIKLSDLPSCYMSDIEFELGLTNSTKQNSVLLLEQISSLCSKVGALFVLPCTISNILIPPPNQLSSRKWKEYIAKKPKTISVPDVEVKGECSSYYLLLQGNGNRRCKATLIHSANQINGSFALNLIHGKMKTKTEEAKLSFPFDLLSLPHFSGEQIVQREKQLANVQVLALEECLKRRKLAKQPETVSVAELKSLLVLTRKHFLDY
modifications: 35S-methionine
For B2, which binding [2] is on record?
The binding was “binds”.

B3: hMTBP, full length, in vitro translated (protein, UniProt Q96DY7 1-904)
chain: MDRYLLLVIWGEGKFPSAASREAEHGPEVSSGEGTENQPDFTAANVYHLLKRSISASINPEDSTFPACSVGGIPGSKKWFFAVQAIYGFYQFCSSDWQEIHFDTEKDKIEDVLQTNIEECLGAVECFEEEDSNSRESLSLADLYEEAAENLHQLSDKLPAPGRAMVDIILLLSDKDPPKLKDYLPTVGALKHLREWYSAKITIAGNHCEINCQKIAEYLSANVVSLEDLRNVIDSKELWRGKIQIWERKFGFEISFPEFCLKGVTLKNFSTSNLNTDFLAKKIIPSKDKNILPKVFHYYGPALEFVQMIKLSDLPSCYMSDIEFELGLTNSTKQNSVLLLEQISSLCSKVGALFVLPCTISNILIPPPNQLSSRKWKEYIAKKPKTISVPDVEVKGECSSYYLLLQGNGNRRCKATLIHSANQINGSFALNLIHGKMKTKTEEAKLSFPFDLLSLPHFSGEQIVQREKQLANVQVLALEECLKRRKLAKQPETVSVAELKSLLVLTRKHFLDYFDAVIPKMILRKMDKIKTFNILNDFSPVEPNSSSLMETNPLEWPERHVLQNLETFEKTKQKMRTGSLPHSSEQLLGHKEGPRDSITLLDAKELLKYFTSDGLPIGDLQPLPIQKGEKTFVLTPELSPGKLQVLPFEKASVCHYHGIEYCLDDRKALERDGGFSELQSRLIRYETQTTCTRESFPVPTVLSPLPSPVVSSDPGSVPDGEVLQNELRTEVSRLKRRSKDLNCLYPRKRLVKSESSESLLSQTTGNSNHYHHHVTSRKPQTERSLPVTCPLVPIPSCETPKLATKTSSGQKSMHESKTSRQIKESRSQKHTRILKEVVTETLKKHSITETHECFTACSQRLFEISKFYLKDLKTSRGLFEEMKKTANNNAVQVIDWVLEKTSKK
modifications: 35S-methionine
How did the binding [2] turn out when B3 was run?
The binding was “binds”.

B4: MTBP (Mdm2 binding protein), endogenous (protein, UniProt Q96DY7 1-904)
chain: MDRYLLLVIWGEGKFPSAASREAEHGPEVSSGEGTENQPDFTAANVYHLLKRSISASINPEDSTFPACSVGGIPGSKKWFFAVQAIYGFYQFCSSDWQEIHFDTEKDKIEDVLQTNIEECLGAVECFEEEDSNSRESLSLADLYEEAAENLHQLSDKLPAPGRAMVDIILLLSDKDPPKLKDYLPTVGALKHLREWYSAKITIAGNHCEINCQKIAEYLSANVVSLEDLRNVIDSKELWRGKIQIWERKFGFEISFPEFCLKGVTLKNFSTSNLNTDFLAKKIIPSKDKNILPKVFHYYGPALEFVQMIKLSDLPSCYMSDIEFELGLTNSTKQNSVLLLEQISSLCSKVGALFVLPCTISNILIPPPNQLSSRKWKEYIAKKPKTISVPDVEVKGECSSYYLLLQGNGNRRCKATLIHSANQINGSFALNLIHGKMKTKTEEAKLSFPFDLLSLPHFSGEQIVQREKQLANVQVLALEECLKRRKLAKQPETVSVAELKSLLVLTRKHFLDYFDAVIPKMILRKMDKIKTFNILNDFSPVEPNSSSLMETNPLEWPERHVLQNLETFEKTKQKMRTGSLPHSSEQLLGHKEGPRDSITLLDAKELLKYFTSDGLPIGDLQPLPIQKGEKTFVLTPELSPGKLQVLPFEKASVCHYHGIEYCLDDRKALERDGGFSELQSRLIRYETQTTCTRESFPVPTVLSPLPSPVVSSDPGSVPDGEVLQNELRTEVSRLKRRSKDLNCLYPRKRLVKSESSESLLSQTTGNSNHYHHHVTSRKPQTERSLPVTCPLVPIPSCETPKLATKTSSGQKSMHESKTSRQIKESRSQKHTRILKEVVTETLKKHSITETHECFTACSQRLFEISKFYLKDLKTSRGLFEEMKKTANNNAVQVIDWVLEKTSKK
For B4, which binding [3] is on record?
The binding was “binds”.

And the binding [4]?
Its binding is “binds”.
